Reference: PMC12136788
This is one part of the list.

B1: chr3:186556460:186556561:-|CDS|ENSG00000113838|unk|total|mutant (ssRNA)
RNA: GGGAGUUCUACAGUCCGACGAUCAGAGCCAGGAAGAUCUAUCCACUUCAUGAACUUGCACUGUGGCAACCACUGCAUGCAGACCGUGGCUUCUCAAAGAUCUCUAAGACUUUCUCUUUCUACAAACUGGAAACCUGGUUGAGGCAACAGAGGAUUGAGCAUCA
B2: chr19:17405403:17405546:-|CDS|ENSG00000130303|unk|FALSE|unique (ssRNA)
RNA: GGGAGUUCUACAGUCCGACGAUCUGACUAUUGCAGAGUGCCCAUGGAAGACGGGGAUAAGCGCUGUAAGCUUCUGCUGGGGAUAGGAAUUCUGGUGCUCCUGAUCAUCGUGAUUCUGGGGGUGCCCUUGAUUAUCUUCACCAUCAACAGAGGAUUGAGCAUCA
B3: chrX:85861749:85861850:-|3pUTR|ENSG00000188419|msi1|total|mutant (ssRNA)
RNA: GGGAGUUCUACAGUCCGACGAUCCUAAUUUAAAAUUUCAGAAAAUGCUAUUAAAGAAUUUUGAUUCAAGUAUUUAAACUGUUCCGUUAUGCAUGCUUCUUAUUAACCGAAAAUGAUAAUACCAUUCCGUUCCGUGAUCAGUAUCAACAGAGGAUUGAGCAUCA
B4: chr11:57661263:57661364:+|CDS|ENSG00000172409|unk|total|mutant (ssRNA)
RNA: GGGAGUUCUACAGUCCGACGAUCCCACCUACUGAGUGUCCGCACUGCCGAGGGUACAGAGGAGAACCUGUCCGAGACAAGUGCCGCUGGCUUCAUUGUGGUGACCAGUGUGGACCUGGAGCAUCAGGUGUUUACUGUUCUGUCCAACAGAGGAUUGAGCAUCA
B5: chr9:83806335:83806438:-|CDS|ENSG00000165113|unk|total|mutant (ssRNA)
RNA: GGGAGUUCUACAGUCCGACGAUCUGGCUCUGAUUCUGAACCUGGAAAAGGUAAAGGUCGAAAUACUGGAAAGUCUCAAACUUCCGGAAGCAAGUCAACUACAAAUGAGAAAAAAAGAGAGAAAAGAAGAAAAAAGAAGGAACACAACAGAGGAUUGAGCAUCA
B6: ENSG00000139350:stop:overlap|stop_codon|ENSG00000139350|stop_codon|NA|stop_codon (ssRNA)
RNA: GGGAGUUCUACAGUCCGACGAUCAUUUAUCUAGUACUCCUUUUGGCCAUGGUAGUAACCAGGCUCUCCAAUCCAGUGUUGAAUAGAAGUGAUGAUAGUGGACAUCUUUAUUUUGUCCCCAAAUUCUGGAAGAAGCAUUCAAUUCAACAGAGGAUUGAGCAUCA
B7: ENSG00000198663:stop:overlap|stop_codon|ENSG00000198663|stop_codon|NA|stop_codon (ssRNA)
RNA: GGGAGUUCUACAGUCCGACGAUCUUAUAGCCAGAGGGGUCCAGCCUUUGGUCAUCUGCGAUGGAACCGCUUUCUCAGAACUGUAGGAAAUAGAACUGUGCACAGGAACAGCUUCCAGAGCCGAAAACCAGGUUGAAAGGGGAACAACAGAGGAUUGAGCAUCA
B8: chr8:100258838:100258944:-|CDS|ENSG00000034677|unk|FALSE|unique (ssRNA)
RNA: GGGAGUUCUACAGUCCGACGAUCAGUGAAUUUGAGGCUCCAUCCCUCAGUGACAGUAUGCCUUCUGUAGCAGAUUCUCACUCUAGUCAUUUUUCUGAAUUUAGUUGUUCUGACCUAGAAAGCAUGAAAACUUCUUGUAGUCAUCAACAGAGGAUUGAGCAUCA
B9: chr10:30336814:30336915:-|CDS|ENSG00000107951|unk|FALSE|unique (ssRNA)
RNA: GGGAGUUCUACAGUCCGACGAUCGUAUUUUCCAGACUGCAUAGUCAGACCCUUUGGCUCCUCAGUCAACACUUUUGGGAAGUUAGGAUGUGAUUUGGACAUGUUUUUGGAUCUAGAUGAAACCAGAAACCUCAGCGCUCACAACAACAGAGGAUUGAGCAUCA
B10: chr3:9371215:9371332:+|CDS|ENSG00000134077|unk|FALSE|unique (ssRNA)
RNA: GGGAGUUCUACAGUCCGACGAUCUGGACAAGAAGUCAAAAUCGAUCAGAGAAAUGUUAAAAAAGAGUUCACUAGCCAUGCUUUAGAUUCUCAUAUCUUAGAUUAUUAUGAAAAUCCAGCCAUCAAAGAGGAUGUAUCAACAUUCAACAGAGGAUUGAGCAUCA
B11: ENSG00000198589:be:win_951|CDS|ENSG00000198589|bound_else_gene|NA|bound_elsewhere_windowed (ssRNA)
RNA: GGGAGUUCUACAGUCCGACGAUCAUGUUAUGUGAAUGGUGAGCUGGCUUCCUAUGGAGAGAUAACAUGGUUUGUCAACACUAGCGAUACCUUUGACAAAUGUUUCCUGGGCUCAUCAGAAACAGCAGAUGCUAAUAGAGUAUUCAACAGAGGAUUGAGCAUCA
B12: chr10:126014591:126014692:-|3pUTR|ENSG00000148848|msi1|total|mutant (ssRNA)
RNA: GGGAGUUCUACAGUCCGACGAUCAAAGGUUUGUCUCCUGAAAUUUUUUAAGUUUGUUUUCCUGACACAUGUAAUCAGAUGUGCCGCAACCGAGGGAAACGAAGCCUAACAUUCUCCAUUGUGGAAAUACACACAGGAGGUUACCAACAGAGGAUUGAGCAUCA
B13: chr19:12699786:12699848:-|3pUTR|ENSG00000105576|msi1_unk|FALSE|overlapping (ssRNA)
RNA: GGGAGUUCUACAGUCCGACGAUCCCUGCUCCAUCCAUCCCUCCUGGGCGCCAGACCCUCCAUCCAAGCCCUGUGUCUUUCCAUAGUCAGGGUCAGGCCCUGCAUCUAUUCCAAGGGGCACUCAGUACACAUUCCAUAAAUUAGCAACAGAGGAUUGAGCAUCA
B14: chr3:154334942:154337698:-|three_prime_utr|ENSG00000174948|control|control|control (ssRNA)
RNA: GGGAGUUCUACAGUCCGACGAUCAACUGUGAAACUAACACCUUUGUUAUGAGACUGAUUUCCUUUUAUUUGUUGGCUUACAUUAGUUUUACUGAUUUAAUAGUUAAUUUUUUUGUGGGAACAACUGGAACUAGUGUAAACACUCAACAGAGGAUUGAGCAUCA
B15: chr8:76864132:76864233:+|CDS|ENSG00000091656|msi1|total|mutant (ssRNA)
RNA: GGGAGUUCUACAGUCCGACGAUCUCAAGCUUGCACAAAGAGAAAACAAUCAAACAAGCAAUGAGAAAUGCCAAAGAGCAUGUCCGAUUAUUACCUCACUCAGUCUGCUCCCCUAAUCCUAACACCACAUCUACCUCGCAGUCUCAACAGAGGAUUGAGCAUCA
B16: chr3:98797553:98797658:-|3pUTR|ENSG00000057019|msi1|FALSE|unique (ssRNA)
RNA: GGGAGUUCUACAGUCCGACGAUCAUUUCAUUCAUUGAAGAAUCAAUACAUAUUUUGUUUCAAAAUGUUUGAAACAAAAGACAUAGAUGGUAGACUUUUAUUAAAACAUAUAUGGAUGUGGAAAGCACAUAUAUUAAUGCAGUCCAACAGAGGAUUGAGCAUCA
B17: chrX:65740646:65740790:+|3pUTR|ENSG00000147065|msi1|FALSE|unique (ssRNA)
RNA: GGGAGUUCUACAGUCCGACGAUCGGCCAUUCUAUUGUGGCAAGGCUGAGUAGAAGAUCCUACCCCAAUUCCUUGUAGGAGUAUAGGCCGGUCUAAAGUGAGCUCUAUGGGCAGAUCUACCCCUUACUUAUUAUUCCAGAUCUGCAACAGAGGAUUGAGCAUCA
B18: chr1:24654915:24655033:+|CDS|ENSG00000133226|unk|FALSE|unique (ssRNA)
RNA: GGGAGUUCUACAGUCCGACGAUCUCACGGUCACCACCAAAGAAGCCUCCCAAGAGGACAUCCAGCCCCCCUCGGAAAACUCGUAGGUUAUCUCCUUCAGCAAGUCCUCCAAGGCGAAGGCACAGGCCAUCACCUCCUGCAACUCAACAGAGGAUUGAGCAUCA
B19: chr19:51964856:51966214:-|CDS|ENSG00000256683|control|control|control (ssRNA)
RNA: GGGAGUUCUACAGUCCGACGAUCGCCUUCUGUGGCCCCUCAGACAUCAUUAAACAUCAGCGGCCUCCUCGCAAACAGGAACGUAGUCCUUGUGGGACAGCCAGUGGUCAGAUGUGCAGCCUCAGGAGAUAACAGAGGAUUUGCCAACAGAGGAUUGAGCAUCA
B20: chr7:77355212:77355430:-|CDS|ENSG00000186088|control|control|control (ssRNA)
RNA: GGGAGUUCUACAGUCCGACGAUCGCUCUAUAGAGCACUGCUCAGCCAGUCGUCUUUAUUACAGCUUCUGCAGAACACUUGCUUAGACUGUGAGAAGAUGGCUGCGUUGCACUGCGCGCUCUACUGCGGUCAAGGUGCGCAGUUCAACAGAGGAUUGAGCAUCA
B21: chr13:42886387:42888493:-|three_prime_utr|ENSG00000133106|control|control|control (ssRNA)
RNA: GGGAGUUCUACAGUCCGACGAUCCAUAUUUAAUCUCUACUGCCAGGGAAAUGCUACAUUAUUUUUCUAAUUGGAAGUAUAAUUAGAGUGAUGUUGGUAGGGUAGAAAAAGAGGGAGUCACUUGAUGCUUUCAGGUUAAUCAGACAACAGAGGAUUGAGCAUCA
B22: chr17:29548703:29548809:+|3pUTR|ENSG00000160551|unk|total|mutant (ssRNA)
RNA: GGGAGUUCUACAGUCCGACGAUCAGCACUUGUGAGUGAAAAAUCAUGUAAUUAUCUGUAAAUAUGCCGCUAACAAAUUGACCCCGUUUCUGUAUUUUUUUGUUUUUGUACUAAAGUUUACCGGUCUGUGCCAGCCCGAGAGAACAACAGAGGAUUGAGCAUCA

molecular target: MSI1 full-length (mouse, UniProt Q61474 1-362); assay: nsRBNS (natural sequence RNA bind-n-seq); RBNS binding buffer (assumed for nsRBNS): 25 mM Tris pH 7.5, 150 mM KCl, 3 mM MgCl2, 0.01% Triton X-100, 500 ug/ml BSA, 20 U/ml SUPERase-In, 4 C; UNK is unkempt and MSI1 is Musashi-1; names of the RNAs are library labels; protein concentration not given here; high values mean tight binding
Sequence of UniProt Q61474 (Q61474 whole entry): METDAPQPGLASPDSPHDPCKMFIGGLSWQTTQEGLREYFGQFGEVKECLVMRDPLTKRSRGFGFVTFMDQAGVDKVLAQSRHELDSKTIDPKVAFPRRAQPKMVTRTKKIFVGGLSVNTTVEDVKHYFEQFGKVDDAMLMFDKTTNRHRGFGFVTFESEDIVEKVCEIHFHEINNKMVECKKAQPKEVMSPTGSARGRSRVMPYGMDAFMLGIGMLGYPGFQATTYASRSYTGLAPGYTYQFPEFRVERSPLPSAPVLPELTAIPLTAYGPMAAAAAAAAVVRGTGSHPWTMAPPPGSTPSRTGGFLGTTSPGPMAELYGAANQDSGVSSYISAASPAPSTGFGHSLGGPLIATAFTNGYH

Binder	binding signal [enrichment R]
B1	0.376
B2	0.506
B3	0.789
B4	0.361
B5	0.502
B6	0.732
B7	0.187
B8	2.9
B9	0.534
B10	2.21
B11	9.28
B12	0.404
B13	0.904
B14	3.06
B15	0.883
B16	1.08
B17	0.592
B18	0.598
B19	0.649
B20	0.255
B21	0.46
B22	1.11
